Consider 153 variants from a collection of fitness landscapes (doi:10.1016/j.celrep.2020.107928).

B1: Caulobacter ParB omega fusion; a variant is named by its letters at X, in order, B8GW30 (parent)
chain: MESVVVGEPGMSEGRRGLGRGLSALLGEVDAAPAQAPGEQLGGSREAPIEILQRNPDQPRRTFREEDLEDLSNSIREKGVLQPILVRPSPDTAGEYQIVAGERAWRAAQRAGLKTVPIMVRELDDLAVLEIGIIENVQRADLNVLEEALSYKVLMEKFERTQENIAQTIGKSXSHVANXMRLLXLPDEVQSYLVSGELTAXHARAIAAAADPVALAKQIIEGGLSVRETEALARKAPNLSAGKSKGGRPPRVKDTDTQALESDLSSVLGLDVSIDHRGSTGTLTITYATLEQLDDLCNRLTRGI

Whole data set: some 81,000 sequences, median “one-hybrid fitness for binding NBS DNA” near -0.1, cut for the highest 2% near 0.36. This is one part of the list. Some results are limits rather than exact numbers.

In this assay the parent is B1. Kind of assay: one-hybrid fitness for binding NBS DNA (the Noc-binding site; scaled: cognate 1, non-cognate 0); higher = stronger binding. Particulars: with NBS DNA site. The essentials:
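In E. coli USO, a HIS3 reporter with its site placed 19 bp from the promoter was used to select Caulobacter ParB variants randomised at four specificity codons. Growth lasted 48 hours at 37°C on histidine-free M9 containing 0.1 mM IPTG and 5 mM 3-AT. Fitness was taken as the log change in variant-to-wild-type read ratio from Illumina sequencing of pre- and post-selection plasmids, rescaled between the non-cognate and cognate sites.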
For DHNK, the “one-hybrid fitness for binding NBS DNA” value was ≤ 0.2.
The same measure for LGAA: ≤ 0.2; for WPYC: ≤ 0.2.
Consider IYIG, for which the “one-hybrid fitness for binding NBS DNA” value was ≤ 0.2.
As for RQLT, the figure is 0.311; as for EPMS, ≤ 0.2; as for TQRY, ≤ 0.2.
As for GLST, the “one-hybrid fitness for binding NBS DNA” value is ≤ 0.2.
As for GKNR, the “one-hybrid fitness for binding NBS DNA” value was ≤ 0.2.
For the variant AGLA, the “one-hybrid fitness for binding NBS DNA” value was ≤ 0.2.
On to ICGC, for which the “one-hybrid fitness for binding NBS DNA” value was ≤ 0.2.
In the case of SAKR, the “one-hybrid fitness for binding NBS DNA” value was ≤ 0.2.
Regarding KKRL, the “one-hybrid fitness for binding NBS DNA” value is ≤ 0.2.
As for QSDF, the figure is ≤ 0.2; as for LLED, ≤ 0.2.
As to EEWR, the “one-hybrid fitness for binding NBS DNA” value was ≤ 0.2.
As for KNGP, the figure is ≤ 0.2.
For the variant LTNP, the “one-hybrid fitness for binding NBS DNA” value was ≤ 0.2.
The same measure for EGGM: ≤ 0.2; for ELER: ≤ 0.2; for VGVR: ≤ 0.2.
As to GTKT, the “one-hybrid fitness for binding NBS DNA” value is ≤ 0.2.
As for AICP, the figure is ≤ 0.2; as for YCVM, ≤ 0.2.
With AGHW, the “one-hybrid fitness for binding NBS DNA” value was ≤ 0.2.
The same measure for PAYQ: ≤ 0.2.
As for EYMS, the figure is ≤ 0.2.
As for QKKN, the figure is 0.42; as for EMLS, ≤ 0.2.
MIFI: the “one-hybrid fitness for binding NBS DNA” value was ≤ 0.2.
The same measure for FAFG: ≤ 0.2; for GSYV: ≤ 0.2.
As for VKRR, the figure is 0.233; as for KCAT, ≤ 0.2; as for VHLS, ≤ 0.2.
The same measure for SPFG: ≤ 0.2.
KRWA: the “one-hybrid fitness for binding NBS DNA” value amounted to 0.224.
As for RVDK, the figure is ≤ 0.2; as for SGYT, ≤ 0.2; as for NHYE, ≤ 0.2.
The same measure for KERP: ≤ 0.2.
As for RCYF, the figure is ≤ 0.2.
On to CNPM, for which the “one-hybrid fitness for binding NBS DNA” value was ≤ 0.2.
With RQQT, the “one-hybrid fitness for binding NBS DNA” value was found to be 0.441.
Regarding GHFR, the “one-hybrid fitness for binding NBS DNA” value was ≤ 0.2.
Take AMAG: the “one-hybrid fitness for binding NBS DNA” value is ≤ 0.2.
As to IIFG, the “one-hybrid fitness for binding NBS DNA” value was ≤ 0.2.
With SQMT, the “one-hybrid fitness for binding NBS DNA” value was ≤ 0.2.
For TQNS, the “one-hybrid fitness for binding NBS DNA” value was ≤ 0.2.
On to QHRK, for which the “one-hybrid fitness for binding NBS DNA” value turned out to be 0.362.
As for RCMI, the “one-hybrid fitness for binding NBS DNA” value was ≤ 0.2.
As for YARK, the figure is ≤ 0.2; as for PLGQ, ≤ 0.2; as for MTFS, ≤ 0.2.
As for LGEW, the “one-hybrid fitness for binding NBS DNA” value was ≤ 0.2.
As for PCWR, the figure is ≤ 0.2; as for PTEY, ≤ 0.2; as for MRQS, ≤ 0.2.
For the variant WRYC, the “one-hybrid fitness for binding NBS DNA” value is ≤ 0.2.
For the variant CQPS, the “one-hybrid fitness for binding NBS DNA” value was ≤ 0.2.
For HRAK, the “one-hybrid fitness for binding NBS DNA” value is ≤ 0.2.
As to RRTP, the “one-hybrid fitness for binding NBS DNA” value was ≤ 0.2.
The same measure for PHDP: ≤ 0.2; for TKSA: ≤ 0.2.
The same measure for SPCH: ≤ 0.2; for ALCC: ≤ 0.2.
Take QHDP: the “one-hybrid fitness for binding NBS DNA” value was ≤ 0.2.
The same measure for NLNR: ≤ 0.2; for PSFI: ≤ 0.2; for PYCN: ≤ 0.2.
As for HGYM, the “one-hybrid fitness for binding NBS DNA” value was ≤ 0.2.
The same measure for GVCT: 0.228; for DSPT: ≤ 0.2; for QSNY: ≤ 0.2.
Consider QCGI, for which the “one-hybrid fitness for binding NBS DNA” value was ≤ 0.2.
The same measure for LHYK: ≤ 0.2; for HTPV: ≤ 0.2.
As for RWHA, the figure is ≤ 0.2; as for RKVA, ≤ 0.2.
Take PMGR: the “one-hybrid fitness for binding NBS DNA” value is ≤ 0.2.
The same measure for QSII: ≤ 0.2; for WEGG: ≤ 0.2; for DQRR: ≤ 0.2.
As for CGLR, the figure is ≤ 0.2.
As to KMNR, the “one-hybrid fitness for binding NBS DNA” value is ≤ 0.2.
As for GVEM, the “one-hybrid fitness for binding NBS DNA” value was ≤ 0.2.
As to WMTY, the “one-hybrid fitness for binding NBS DNA” value was ≤ 0.2.
Turning to WDEV, the “one-hybrid fitness for binding NBS DNA” value was ≤ 0.2.
The same measure for SHVM: ≤ 0.2; for ANHG: ≤ 0.2; for YTCF: ≤ 0.2.
Consider QSYT, for which the “one-hybrid fitness for binding NBS DNA” value was 0.347.
The same measure for ALHS: ≤ 0.2; for TQNC: ≤ 0.2; for IYGV: ≤ 0.2.
On to IVWG, for which the “one-hybrid fitness for binding NBS DNA” value is ≤ 0.2.
FPGC: the “one-hybrid fitness for binding NBS DNA” value is ≤ 0.2.
As for WGWR, the figure is ≤ 0.2; as for GFKS, ≤ 0.2.
As for RTVY, the figure is ≤ 0.2; as for MPCT, ≤ 0.2; as for DFSK, ≤ 0.2.
For DCWR, the “one-hybrid fitness for binding NBS DNA” value was ≤ 0.2.
Consider QDDL, for which the “one-hybrid fitness for binding NBS DNA” value was ≤ 0.2.
Turning to LVHF, the “one-hybrid fitness for binding NBS DNA” value was ≤ 0.2.
As for CRSP, the figure is ≤ 0.2.
The same measure for MLLI: ≤ 0.2; for SPLA: ≤ 0.2; for VASF: ≤ 0.2.
As for SNML, the figure is ≤ 0.2; as for HMSG, ≤ 0.2.
For the variant KSAY, the “one-hybrid fitness for binding NBS DNA” value was ≤ 0.2.
The same measure for ILHD: ≤ 0.2; for FPFC: ≤ 0.2; for HGDK: ≤ 0.2.
Take IKWG: the “one-hybrid fitness for binding NBS DNA” value was ≤ 0.2.
The same measure for HEET: ≤ 0.2; for IQVL: ≤ 0.2; for GRAA: ≤ 0.2.
Turning to RIQL, the “one-hybrid fitness for binding NBS DNA” value was ≤ 0.2.
For YENG, the “one-hybrid fitness for binding NBS DNA” value was ≤ 0.2.
For HNRI, the “one-hybrid fitness for binding NBS DNA” value was ≤ 0.2.
As for KRQF, the figure is ≤ 0.2; as for RIVC, ≤ 0.2.
With DWYR, the “one-hybrid fitness for binding NBS DNA” value was ≤ 0.2.
As for ALNH, the figure is ≤ 0.2.
Take KKES: the “one-hybrid fitness for binding NBS DNA” value was ≤ 0.2.
The same measure for YYEG: ≤ 0.2.
The same measure for QYIT: 0.355; for AMNR: ≤ 0.2.
The same measure for PGIE: ≤ 0.2.
Regarding WYTR, the “one-hybrid fitness for binding NBS DNA” value was ≤ 0.2.
The same measure for SLKR: ≤ 0.2; for TAQT: ≤ 0.2.
For the variant PVGV, the “one-hybrid fitness for binding NBS DNA” value is ≤ 0.2.
Take FDLQ: the “one-hybrid fitness for binding NBS DNA” value is ≤ 0.2.
For the variant KSDC, the “one-hybrid fitness for binding NBS DNA” value was ≤ 0.2.
As for RAKE, the figure is ≤ 0.2; as for ETIL, ≤ 0.2.
On to SLSN, for which the “one-hybrid fitness for binding NBS DNA” value is ≤ 0.2.
For the variant CITA, the “one-hybrid fitness for binding NBS DNA” value was ≤ 0.2.
As for YTMT, the figure is ≤ 0.2; as for IPRR, ≤ 0.2; as for NSMV, ≤ 0.2.
The same measure for GVRA: ≤ 0.2.
As for NAMV, the figure is ≤ 0.2; as for LWCV, ≤ 0.2; as for QFHP, ≤ 0.2.
Regarding WTLG, the “one-hybrid fitness for binding NBS DNA” value is ≤ 0.2.
The same measure for MLYC: ≤ 0.2; for SSHV: 0.304.
The same measure for MGSL: ≤ 0.2; for LNYS: ≤ 0.2.
